Assay results published in the supplement of paper PMC12632987.
Whole data set: some 1,800 sequences, median “median log2 fold change of GCK-ALFA target abundance (FLAG IP / Myc IP barcode read proportion)” near 0.14, cut for the lowest 2% near -0.84. The list shows a part of the results.

B1: traf2_out_11_155_676 (protein)
chain: EEKRKINNELVDKMSEIDDELKAEIGAIVDEAAAAHPEHAAELNATWAASQPYPGSSRARIMAAKFEELGLEEYAKKLKELLEEAQKKKNEAVKEYEEKL
B2: traf2_out_16_104_1397 (protein)
chain: AEEKQARFEAIIAELEAIAAELGRLANEIYKLMLKASEEKKKELSDALVDVSAVRRAALEAAVQAREDLKAGGDLAAAEARLAALKAAAAAAKAKVEKLK
B3: traf2_out_13_95_1067 (protein)
chain: SKETAKKINELADEAEKKALALLDKAKAELADNPAAVAALDEARRLAETRGIRAAIHALREAKAAMPELAAEFDALIAELEAIRTELGKKVAEIIKEEKE
B4: traf2_out_17_178_1683 (protein)
chain: TKEEERKKISELTDKLIDLTEATGTELLALAKAEGTLTPEELAELEAAIRRGSNRTFTALARRIVPKLKSAEEAQARLDAFEAEARKLNKEIAEAYEKYE
B5: traf2_out_4_186_2312 (protein)
chain: SEIKEARLEGLEIERKAAERLAEELKELIEKGEKPPEEKLKRYVDETVAHLLMVGEYEEANKVEQAYKDKAPQEELLKLLYEAAEKAAELLKKKLEELKK
B6: traf2_out_17_162_1571 (protein)
chain: AELEKELEELKKRLEELEKKLEEFKKKLPELPKMSKEELTDLLVEVSELKREARELAERLAELGAKLGSEELEKLVKRAEEIAEELQRIANEIYKEIEKK
B7: traf2_out_11_155_733 (protein)
chain: EAKKKAQREINDFALEVGDELEAYVKEIIKEVEKEDPEAAKELREIFEKHLKFSKRSAARAVAEKLKELGYEEKAKELEEKIEEAQKKISDFVNEVEKKL
B8: traf2_out_13_95_1188 (protein)
chain: EEEKRKKYKEKTNEIADELLDHADALIARIEAATGDPALGAELRRVLNRGGVSALIHFIREQAAKDPAHRALFEAAAADLEAKRREAGKKVAEAEKEIEE
B9: traf2_out_17_162_1475 (protein)
chain: MSLEERWEELLRRLEELERLREELEKKLENIENMSKEELTDLLVEASEARREARRLAEEFRSLAPEIGEERAAEYAARALEIAERLQRIANKIYKELEKK
B10: traf2_out_1_158_915 (protein)
chain: DTKKNLILAVVRLVGDDAIESAREAGDEETAKALEEFVKEVEEAVRKLLIEENKSVEEVIEEIKKIEEERKKKVNPETAKAIERLGRQIISGIKQVDKLM
B11: traf2_out_8_15_2548 (protein)
chain: SIKEAAEKDIARLKALSDGDKESLINTLLGMAKGELRLAKIYKEEGRKEEALRTLEYARIYAEAALELAKEIGSPRLEEIKKEVEELEKEIEELRKEIEA
B12: traf2_out_18_117_1773 (protein)
chain: SAREEVIARLEALAEEVDRAASRLGKAVLEHWDELTPEQKSAAMDVLADLSAVRREALLLIHRIREEGLPLEEAEARAEALAARAKAALAAAEARLKAIA
B13: traf2_out_20_3_2084 (protein)
chain: KELEEEYKKHLEKAEKLLKEAAKLADPETAKKLEELIKRLKKSEELPYSDRLVVLSEVRREVLLLAQEAKAAGNEELAKILEEAAEEINRAMNLLMKMIE
B14: traf2_out_15_180_1319 (protein)
chain: MTEEELKKRIELANEVADKVQDKLKELLAKNPSLSEEEKKALKELARSLTTLLMNGEEEEAAAVLEEAKAKLSPEAAKIADELYEFIKKEVKEAKEKLKK
B15: traf2_out_20_3_2261 (protein)
chain: EELREKAKKALEEAEKLLKELEPLLPPEEAAELKELLKKAKEAFEKDLKDALVYLSELRRLLLRLSERARAAGDEELAALLEEAADAVNRAANYIYKIIE
B16: traf2_out_5_63_2343 (protein)
chain: SEREELTELARRADRLVREMLEAARAGDEERVERLLEEAVADPELARLVLGILRAEARAYELDGEREEEAEIARRLRERLEERLAAREAERAAAAAAAAA
B17: traf2_out_6_166_2465 (protein)
chain: MEETLAEIRRIAERLGEYEPEIVIEAFERVAAELTDERALLARQLASGVRQGQKAGIDTRTIVTAMADGWLALGVPPEDILELLRRVLEEAERLAAEREA
B18: traf2_out_11_169_890 (protein)
chain: EEEEKNRKIIEHALELNDKAKEELKKYALKLAKEAGLDEKEVEKIFEENKGKSLSYVASKLIEWFKSKGAEEAAKAVLEKYDELKEKINKESTKFIKELE
B19: traf2_out_18_167_1844 (protein)
chain: EEEIEERRRELSDRLVDLSAVRREALRALQALDTDPSAVPAELAALRAEAARVPELQPLVDAAEAALEAGDRAALRAELERLIAEAGRLMQEAYKELEAL
B20: traf2_out_18_3_1897 (protein)
chain: KEAELKEISEKIDEIIDEVTAKAREVLDWIAANHPEVKERVDALRADLDAGAGPFGILEALAELLKEAGDEEKAKEVEDFLKEKKKELQELVDKYEELRA
B21: traf2_out_5_189_2326 (protein)
chain: SEKEKEDEELRKKAKELSEEARKLLKEAKEKGLSYEEIEEKFLEYAKTLSLEDAQLFMGIMYSILKGEALANNDEELLKFAENYRKRSKELIEKRRKELA
B22: traf2_out_20_3_2197 (protein)
chain: SPLEEELKKELEKAIKLLKEAAKLADPETAKKLEELIKKIKESESLSISDQLVVLSEVRREVLLLAEEAKKEGKEELAKVLEKAAEELNKAMNLLMKMLE
B23: traf2_out_1_156_897 (protein)
chain: MTDEEKQAAIHERLKNPEYRRAFVDAALTRRDLRERAEELRKEGGDEEVIKRLEEKAEEIHKAMNEFLSSEPEELEKKLEELKEKIKEGKEALKEAEKER
B24: traf2_out_15_48_1355 (protein)
chain: STAALRATAREVNDRIEATQAAVAARLRALLPKLPPENRPLAQAAIDLAGNNGSISDVIALLDELAKKVSPELRAELTALRDELLATRREGSRLINETLA
B25: traf2_out_17_178_1706 (protein)
chain: TKEEARKRISEATDRMIDLAEEAAARLLEIAEREGSLSPEELAELRRARRLGSARTTLALMDRAIPKSRSAAEVTALRDRFEAEYARLAKEIAEALKKYE
B26: traf2_out_5_63_2340 (protein)
chain: SEREELTELAREADRLVREMLEAAKAGDEERVDALLDEAVADPELARLVIGILKAEERAYRLSGDREEDAEIARELRDRLEARAAAREAAAAAAAAAAAA
B27: traf2_out_8_15_2555 (protein)
chain: SVEENAKKLVEKLEAASDGDKNTLANLLIGEIKAHVRLAEILLEEGKIEEALNTIKYTRAYIKEALKRAEELGLPKLEELKKAAEEAEKRLEEIEKRIKE
B28: traf2_out_20_3_2116 (protein)
chain: EELEKELEKELEKALKLLEEAAKLADKETAKKLKELAERLEKSKSLSYSDRLVVVSEIRREVLKLRQEAEAKGDEKLAKVLEKAAEELNRAAGLLMKIIE
B29: traf2_out_13_169_1028 (protein)
chain: EEIRKETEELLKKSLERYLKEIEKKIKELKKKGTELYKEIAKVAEEILELIKELYKKGELYEATGFARRLLSILELAETDPEKALKLLKELLEEAKKELK

Target: T1, TRAF2, Q12933
T1 chain: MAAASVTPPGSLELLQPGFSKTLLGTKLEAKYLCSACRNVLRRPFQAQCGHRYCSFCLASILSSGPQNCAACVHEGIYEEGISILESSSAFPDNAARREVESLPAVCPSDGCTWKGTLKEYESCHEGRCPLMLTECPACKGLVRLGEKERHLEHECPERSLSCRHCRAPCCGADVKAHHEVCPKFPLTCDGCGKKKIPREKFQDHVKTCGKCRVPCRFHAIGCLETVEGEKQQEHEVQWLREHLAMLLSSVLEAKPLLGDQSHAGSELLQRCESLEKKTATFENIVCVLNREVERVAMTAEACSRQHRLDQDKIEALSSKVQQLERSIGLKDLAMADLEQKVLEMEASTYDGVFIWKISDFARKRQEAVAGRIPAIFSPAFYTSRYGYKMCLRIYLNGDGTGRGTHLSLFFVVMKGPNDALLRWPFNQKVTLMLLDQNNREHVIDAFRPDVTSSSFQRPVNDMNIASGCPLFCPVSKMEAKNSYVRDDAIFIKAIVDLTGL
Assay: median log2 fold change of GCK-ALFA target abundance (FLAG IP / Myc IP barcode read proportion) (log2 ratio); each designed protein is fused to an ALFA-tag nanobody in HEK293 cells to bring the named protein to FLAG-tagged glucokinase (GCK); Myc marks an untargeted standard; higher = target protein stabilised (more abundant)
Conditions: target protein: 3xFLAG-MCP-GCK-ALFA reporter; HEK293 landing pad (RPLP)
In short: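 Binders fused to an ALFA nanobody were recombined as a library into HEK293 landing-pad cells, which were induced with 2 μg mL^−1 doxycycline and then transfected to express a FLAG-tagged target and a Myc-tagged standard. After 48 h, circular RNA barcodes recovered by anti-FLAG and anti-Myc immunoprecipitation of lysates were reverse transcribed, amplified and sequenced. Each binder's target abundance is the median log2 ratio of FLAG to Myc barcode read proportions, from barcodes present at ≥10^−7 in both replicates, binders carrying ≥3 barcodes per replicate, a 10^−6 pseudocount and pooled replicates.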

Q: For B1, which “median log2 fold change” value is on record?
A: 0.247

Q: B2 was tested. Which “median log2 fold change” value did it give?
A: -0.0376

Q: B3 was tested. Which “median log2 fold change” value did it give?
A: -0.0153

Q: With B4 as the binder, how does the “median log2 fold change” value read?
A: 0.271

Q: With B5 as the binder, how does the “median log2 fold change” value read?
A: 0.0035

Q: Which “median log2 fold change” value does the source give for B6 here?
A: 0.207

Q: B7 was tested. Which “median log2 fold change” value did it give?
A: 0.199

Q: How did the “median log2 fold change” value turn out when B8 was run?
A: -0.0372

Q: B9 was tested. Which “median log2 fold change” value did it give?
A: 0.0618

Q: With B10 as the binder, how does the “median log2 fold change” value read?
A: -0.106

Q: B11 was tested. Which “median log2 fold change” value did it give?
A: 0.203

Q: For B12, which “median log2 fold change” value is on record?
A: 0.0262

Q: B13 was tested. Which “median log2 fold change” value did it give?
A: 0.118

Q: With B14 as the binder, how does the “median log2 fold change” value read?
A: 0.315

Q: With B15 as the binder, how does the “median log2 fold change” value read?
A: 0.304

Q: B16 was tested. Which “median log2 fold change” value did it give?
A: -0.159

Q: Which “median log2 fold change” value does the source give for B17 here?
A: 0.248

Q: How did the “median log2 fold change” value turn out when B18 was run?
A: 0.15

Q: For B19, which “median log2 fold change” value is on record?
A: 0.223

Q: How did the “median log2 fold change” value turn out when B20 was run?
A: 0.44

Q: With B21 as the binder, how does the “median log2 fold change” value read?
A: 0.318

Q: How did the “median log2 fold change” value turn out when B22 was run?
A: 0.133

Q: With B23 as the binder, how does the “median log2 fold change” value read?
A: -0.051

Q: For B24, which “median log2 fold change” value is on record?
A: 0.179

Q: With B25 as the binder, how does the “median log2 fold change” value read?
A: -0.21

Q: With B26 as the binder, how does the “median log2 fold change” value read?
A: -0.0288

Q: B27 was tested. Which “median log2 fold change” value did it give?
A: 0.147

Q: Which “median log2 fold change” value does the source give for B28 here?
A: 0.229

Q: Which “median log2 fold change” value does the source give for B29 here?
A: -0.0793
